Results as given in article PMC6212790.
This is one part of the list. At the low end of the ranking, values are background and their order means little.

target: T1, GST-Rok-C97-191 (UniProt O34857); test: protein binding microarray; settings: Rok is a gene silencer of Bacillus subtilis; high values mean tight binding; most listed sequences are background and not binding sites; double strand, one strand shown;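 further: rank score from −0.5 (least bound) to 0.5 (best bound)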
T1 sequence: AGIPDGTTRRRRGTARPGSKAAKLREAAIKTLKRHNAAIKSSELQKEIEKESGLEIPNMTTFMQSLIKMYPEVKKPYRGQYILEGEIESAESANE

Sequence | binding signal [E-score]
CATTAAGG | -0.0335
CTGTAATA | 0.334
CCTGGAAG | -0.186
GGAGTATA | 0.0864
AGGCAAAG | -0.302
CTTTAATC | 0.0488
AATAACAT | -0.0349
AATATCGG | 0.258
CGCGCTGA | 0.0861
ACCAATTG | 0.178
AAGCACAG | -0.113
TACTGGGA | 0.185
AAAACGGT | 0.107
ACGGGCGG | -0.308
CAAGAACG | -0.0599
GGTATCCA | -0.00716
ATCTAAAG | 0.0158
ATATCTGG | 0.0784
AGATGCCG | -0.0221
GCTAGTCA | 0.00343
ATAAAGGA | -0.135
AGCCTAAC | -0.0286
CTACTTAC | 0.222
CCCACAAG | -0.133
ACGGTTTA | 0.0675

Sequence | binding signal [E-score]
CCTCCCCG | -0.281
ATTCTATG | 0.088
AGGACTAA | -0.023
GATATGGC | -0.025
ACTCTAGA | 0.152
ACCTCATC | -0.102
GACGCGAA | -0.151
CGCTACCC | -0.0512
ACGTAGGC | -0.218
ACCAGTCT | -0.0619
GAGGGGTA | -0.061
AGAGCAAT | -0.00294
AATCTGAG | -0.00789
CGTTACAA | 0.159
ATAGTAAA | 0.357
GCGGATCA | -0.15
AACCCCTT | -0.234
GGGTAAGA | -0.111
ACTTCCCG | -0.0833
CCGATGGC | -0.232
CACTCTAG | -0.019
CCCTAGTC | -0.246
ATTCCGAC | 0.0397
CTACAACA | 0.306
GAGCGGGC | -0.32

Sequence | binding signal [E-score]
AGTCCAAG | -0.023
ATCTGATC | -0.0568
AAGGCCGG | -0.208
ATAATGTG | 0.167
AGGAAAAC | -0.105
TGAGGGAA | 0.0918
CTTTCGTA | -0.0555
GCCCGCGA | -0.314
GTGTACAA | 0.213
AAGGGATC | -0.238
GAGTATCC | -0.0968
AAGAGCGC | -0.252
AAGCGGGT | -0.0644
GACCAACC | -0.102
GGTGCCTA | -0.184
CGCTTCAA | -0.123
ATGCAAAT | 0.221
ATCGTACA | 0.178
GGTCTATA | -0.075
ACTAAACC | -0.0801
CTCTCTTC | -0.205
ACCGAAAC | -0.0101
CATGATAG | 0.108
TACTGCTA | 0.334
CTACACAA | 0.234

Sequence | binding signal [E-score]
ACCAGCCA | -0.264
GAGCCCAC | -0.219
CCCCTTAG | -0.292
AGCGCTGG | -0.00569
TCGCTACA | -0.0629
GAAATGCC | -0.0949
ACGAATGC | -0.141
ATCACTTC | 0.00542
GACCATAC | 0.14
AGGCAAAC | -0.104
AAGCCTCC | -0.276
GTGAAGTA | 0.066
GCGCATGA | -0.138
CAGCACTG | -0.198
ACAACTGA | -0.0786
CAACAAAA | 0.13
AAGAACGT | 0.0755
AGTTACGC | 0.0861
TGCCGCAA | 0.018
ACTCATCC | 0.00841
AGGACTGC | -0.305
AGCTTTCA | -0.158
CACTATGA | -0.0111
CGGTACTA | 0.257
GGACGACA | 0.000282

Sequence | binding signal [E-score]
CAGGCGAC | -0.00727
ACATAGTC | 0.179
TCATAGAA | 0.0351
CGATACAC | 0.155
TAGATGAA | 0.131
CACATGCG | -0.174
AATGCATA | 0.0752
ACAGGTTA | 0.0291
GCCGACGC | -0.161
TGCCACCA | -0.151
ATCTTGCG | -0.213
CACGGGGG | -0.331
TCAAGACA | -0.19
ATCGCCGC | -0.0266
AACATGTC | -0.039
ATATCAAG | 0.127
CTCCTAGC | 0.0828
ATTTTAAG | 0.142
GCGAACAC | -0.259
ACAAGTAA | 0.247
CTGTCGAC | -0.044
AACGTGAC | -0.0729
TGAATCCA | 0.0381
AGAAAATA | 0.342
GGAGCTCA | -0.0848

Sequence | binding signal [E-score]
GTAATTTA | 0.353
AATACTCT | 0.131
CCGGTAGC | 0.0727
AAACCGCC | -0.208
AAAAGAAC | -0.1
ACAGGTGA | 0.0974
GAGGGATC | -0.17
GCGTCCAA | -0.0249
CTCTGAAG | -0.19
AGCATCTC | -0.0616
ATAAGAGA | -0.0534
AGTTATAC | 0.241
GTCGTGCA | -0.00336
CTGTCCCC | -0.191
ACGAGTAG | -0.0374
AAATGGCT | -0.0734
ACCAAAGG | -0.141
CTGCCTCC | -0.356
ATCCTCGG | -0.269
CGTACTAG | 0.0424
ATACATGA | 0.268
CTGGGTGA | -0.322
CGGACCAC | -0.143
ACCTAGGA | 0.0393
GCCTCCGA | -0.282

Sequence | binding signal [E-score]
CTGCGGGC | -0.131
GTAGGAGA | 0.0828
AGACCGTG | -0.0894
ATCACGCC | -0.135
ATTCCGCC | -0.115
AATCGTGA | -0.118
TATACCCA | 0.112
CAGTTAAC | 0.0265
TAACTGTA | 0.255
GTCAATGA | -0.108
ACAGTGCT | -0.159
GCATACAC | 0.0144
AGAACGCT | 0.0663
CACACGGG | -0.16
GCGGCCAC | -0.254
GTCATCAA | -0.132
CCCACGAG | -0.091
CGTTAAAC | -0.0286
CGTATGTC | -0.0562
CCTTGTAG | 0.0318
CAGCAGAG | -0.296
GGCTACAA | 0.0734
ACTGGCAA | -0.109
ACCTCAAG | 0.0574
AGCCTAGA | -0.124

Sequence | binding signal [E-score]
CAAGGGTG | -0.101
AGGGTCCG | -0.242
CCCAGCCA | -0.271
ACGTCTCG | -0.139
CTCACCAG | -0.245
CCTAGCGC | 0.0615
AATGCCAG | 0.0127
CCATCGAG | 0.015
CGACGTAC | -0.0738
AGGCGTCA | -0.251
CCGGACAG | -0.0562
ACTGCGCC | -0.196
AGATGCAG | -0.133
GAACATAA | 0.144
GCTTAAAA | -0.0304
ACCTGGCC | -0.175
AAAAAGCC | -0.198
ATAGACGA | -0.0484
ACCCCCGG | -0.103
CGTAACTA | 0.314
CATTGGAC | -0.155
ATCGTTGA | -0.0991
CCTTAGCC | -0.241
ATTACTTA | 0.2
AATAAGTC | 0.139

Sequence | binding signal [E-score]
CTGCTTCC | -0.102
GGAGCAAA | -0.109
ACTGTACG | 0.223
ATACGATA | 0.316
CCTTAGAA | 0.0764
CACGTCGA | 0.183
ACTAGAAG | 0.199
GGAAGCCA | -0.199
CTATCGGA | 0.148
AACGTGGT | 0.174
AGGGGAAG | -0.268
ACAGGCCG | -0.175
CGTCACTA | 0.137
AGGTCCTA | -0.0587
CCCTTGTA | 0.18
CAATTATA | 0.291
AAAGTATA | 0.276
TGCAACAA | 0.0865
CAGCTAAG | -0.101
ATGTTACC | 0.207
ACTTACGG | 0.0959
TTCGGAAA | -0.0109
ACTGCGAA | -0.0463
CTGGATAC | -0.0748
AAACAATT | 0.15

Sequence | binding signal [E-score]
GACGGAGA | -0.222
CGCGTTGA | -0.0143
CCCGTCCA | -0.05
ACGGATAG | 0.0351
ATCCACTG | -0.124
TGCACGCA | -0.0836
CCATATCG | 0.058
GTTTTCTA | 0.256
ACATGTAA | 0.267
GACATAAA | 0.101
GAGTCGGC | -0.0688
CTGCCGCA | -0.198
CCTGCGTC | -0.298
AGCGGACT | -0.116
GTCTGGGA | -0.196
CTAGTGGA | -0.0698
CGGGTCTA | -0.111
CCAGAAAA | -0.0785
GAAAGAGC | -0.143
GAAAGCTA | 0.153
GGATCTAA | -0.102
CTTCAGCC | -0.152
CCATAAAA | 0.0544
GCGAGAAA | 0.0902
AGTGCCGG | -0.0114

Sequence | binding signal [E-score]
ATTTATGC | 0.0496
ACAGGGGC | -0.169
CTAGCCTA | -0.0726
AACGCTAG | 0.0384
ATCGGCAG | -0.247
CATACGCC | -0.0104
CATGAATA | 0.157
TCCCGCGA | -0.171
CCCTACGC | -0.276
AATAATAT | 0.321
GGTCAGGA | -0.126
ACAGACGC | -0.0889
CATGTAGA | 0.327
ACGGAGTG | -0.196
ACGTCGCC | 0.108
GAGGAGAA | -0.0778
GGCTCCCC | -0.463
CATGGCGC | -0.201
GCATCTTA | 0.0301
ATGCAACG | 0.0852
AAAATGGG | 0.115
GCCCTTAA | 0.00698
GTGTGAAC | -0.0488
GGCAGTTA | 0.0872
ATGACTGG | -0.156

Sequence | binding signal [E-score]
CAAGGGCA | -0.232
CCGTCGCG | -0.201
TAAGGTAA | -0.00793
GTGAGTTA | 0.202
TATAAGCA | 0.215
ATAGAGAA | 0.217
AATTATCT | 0.285
CGGGGCTC | -0.279
TGACTCAA | -0.0153
CTTAAAAG | -0.15
AGTGAAAT | 0.0143
ATAGAGTA | 0.203
ATCGTTTC | 0.0652
CTCTGCAC | -0.254
GTTAACAA | 0.271
TGCCACAA | -0.0432
AAATAGAA | 0.36
CCGGTCGC | -0.341
CCAAGCAG | -0.155
CTATTATC | 0.211
CCAACAGG | -0.251
AGCGGCCC | -0.369
CAAAACTG | -0.244
ACTGCATG | -0.00855
CCCGAAGA | 0.0539

Sequence | binding signal [E-score]
CTGTCCGC | -0.184
AGCCAAAG | -0.388
AAGAGATC | -0.203
GAAGAAGA | -0.122
CCACCATA | 0.0786
ACCGGGGA | -0.0231
CACGCTGG | -0.173
GTCCCTCA | -0.284
CCGACTAA | 0.114
GGCGGTCA | -0.194
GTATCTCA | 0.135
TCCTCAGA | -0.0154
CACATATG | 0.197
AGGCTGTA | -0.0162
ACCGTTGA | 0.0449
ACATGGTG | -0.0396
GGATGGTA | 0.225
CGTGGGGA | -0.266
CAGCAACA | 0.00686
AGCGGACA | -0.0311
AACGACCC | -0.0945
ACTGAAGG | -0.0541
ACCACTCG | -0.181
GACTAGTA | 0.368
AAGCACTT | 0.0124

Sequence | binding signal [E-score]
CAGCTCAC | -0.08
GCCACACA | -0.0963
CTTGTCGA | -0.125
GCTCATAA | -0.0493
TAAACTAA | 0.234
AATACCAA | 0.0977
ATCGTATG | 0.0291
GTAATACA | 0.258
GCTGACCC | -0.326
ACTTTACG | 0.0222
AGCAATCA | 0.142
AGTTTTCA | 0.131
GAACTCGA | -0.059
CGATGGCC | -0.0531
ATCCCTTC | -0.096
TAGTGAAA | 0.189
AATAGACT | 0.0601
CGGTGCTC | -0.157
ACTTGCAA | 0.0387
